Among the data in the RNAGym collection of RNA variant scans (doi:10.7554/elife.90254) are self-cleavage values, retold here.

First the molecules themselves.
B1: LINE1-mini (parent)
chain: GGCAGAGCUCAACACAGCGUGGCAAAGUGGCUGUGGCUAGACUGCC

The source gives no read counts; variants with many changes may rest on few reads.

This data set covers variants of B1. The experiment in a line: self-cleavage, relative activity (ratio to wild type); higher = more cleavage; in vitro, sequencing; the parent is a self-cleaving ribozyme.
Take C3G A24G G40U: the self-cleavage worked out at 0.04.
With C3G A6U G44A C45U, the self-cleavage stood at 0.68.
In the case of C3G C13U C42U, the self-cleavage came out at 0.45.
As for C3G A12U U20A, the self-cleavage came out at 0.1.
As for C3G C18A A25C C31U, the self-cleavage was determined as 0.05.
On to C3A G33A C37A, for which the self-cleavage worked out at 0.41.
Under C3G A6C G7U A14U stands 2.34; under C3G A16G C23A, 0.17; under C3A G30A U43A, 0.06.
Take C3A G22U U28C U32C: the self-cleavage came out at 0.35.
Consider C3G C10G G21A A24G G35A U38C A41U, for which the self-cleavage came to 0.
As for C3A U20A A39C C46U, the self-cleavage was 0.01.
With C3A U32G G35A, the self-cleavage was found to be 0.09.
Under C3G A14C G27U C31U stands 0.02; under C3A U9G A12U A24G G29C G36A C37A, 0.05.
For C3A U34C U38G C42G the value was 0.17; for C3G C8A U9C G21C G33U, 0.05; for C3A U20C G21U G29U C45U, 0.26.
Under C3G A25U C46U stands 0.11; under C3G A12C C42A G44C C45U C46G, 0.04.
As for C3G C15U C45A, the self-cleavage was found to be 0.27.
On to C3G A26U G27U U38G G40C, for which the self-cleavage worked out at 0.06.
With C3G C15U G17A G21C G40U, the self-cleavage is 0.11.
Take C3G C13U A16G G21U G36U: the self-cleavage came out at 0.07.
On to C3G A12U A16G G22U U28C, for which the self-cleavage worked out at 0.12.
Consider C3A G35C G36A C37G, for which the self-cleavage came out at 0.31.
Under C3G C10U C13A G30C U32A stands 0.02.
For C3G A4C U9A G21U A25C the value was 0.02; for C3G C10A C31G G40A, 0.01; for C3G C13U A16U U32G, 0.08.
For C3A U9A U28C G33C G40C the value was 0.29.
On to C3A G30U C31U G40U A41G C46A, for which the self-cleavage worked out at 0.29.
Turning to C3G C8U G19C U20C G21A U28C G33A, the self-cleavage is 0.02.
For C3G A25U U38G the value was 0.17.
Under C3G C13A G35A stands 0.07; under C3G C10A C31U, 0.03.
For C3A U9C C13G G19U the value was 0.03; for C3G A4C A14G C15U G44A, 0.14; for C3G A14G A25C, 0.1.
As to C3G A4C G7C C13U G44U, the self-cleavage is 0.13.
For C3G C8G G17U U32A C37A the value was 0.03; for C3G A16C C18G G19A G21U A25C G27U G40C C45A, 0.01; for C3A U9C A11U C45A, 0.01.
On to C3G A16G C42A, for which the self-cleavage is 0.26.
Regarding C3G C10U A25G A39G C45G, the self-cleavage came out at 0.03.
With C3G C8A G17A G29A, the self-cleavage is 0.3.
C3G A4U U20A G36U G40U: the self-cleavage was found to be 0.03.
For C3G A4U G5U C10G G40U the value was 0.02.
For the variant C3G A25U U34A G35A, the self-cleavage came out at 0.06.
Regarding C3G C10A G36A, the self-cleavage amounted to 0.04.
For C3G A14C C18G G36C C45U the value was 0.04; for C3A U9C A14C, 0.03; for C3A U9G C10U A24C G44A, 0.03.
Under C3G C10U A25G G33C C45A stands 0.03.
For C3A G33A U38A the value was 0.14.
With C3G A4C C31A C37U, the self-cleavage worked out at 0.05.
Under C3A U9A U28G U38A stands 0.17; under C3A U9G C18U C23U U28C, 0.14; under C3G C8G C23G G30U G35U G40C, 0.18.
Under C3G C13G G27U stands 0.45; under C3G C8U U32A C42A G44U, 0.32.
As for C3A G30A A39C G40C, the self-cleavage came to 0.09.
C3G A39U C42A: the self-cleavage is 0.06.
Under C3G C10A G17U C31A stands 0.03; under C3G A4C G19A A24G, 0.02.
For C3G C10U A16U U20C G40A the value was 0.06; for C3G C23A U32G A39U U43A, 0.06.
Under C3G A6U U9G C18A stands 0.4; under C3A U9G C31U G33U U43G, 0.05; under C3G A4C C15U U20A A41C, 0.14.
For C3A G29C U38C, the self-cleavage worked out at 0.11.
Turning to C3G C8U G17C C42G, the self-cleavage amounted to 0.06.
On to C3G A6G C10U, for which the self-cleavage is 0.03.
For C3A U43C G44C the value was 0.12.
For C3G A4G C8U G29U A41U, the self-cleavage stood at 0.65.
Turning to C3G C15A U20G, the self-cleavage amounted to 0.03.
Take C3G A4U C18A G29C: the self-cleavage worked out at 0.09.
For C3G C15A G17C, the self-cleavage was determined as 0.81.
As to C3G A14U G22U, the self-cleavage turned out to be 0.37.
In the case of C3G A25G G35C, the self-cleavage was 0.12.
With C3G C13A U20C G21C G29A, the self-cleavage is 0.17.
Under C3G A12C C15A U20G A25U stands 0.04.
Take C3G C8A A14U: the self-cleavage was 0.1.
For C3A G33C U43C the value was 0.07; for C3G A12C G17U U20A G22A G36U C42U, 0.01.
Regarding C3G C13G C42G C46G, the self-cleavage was found to be 0.01.
For C3G C13A U20A C37G the value was 0.06.
Under C3A U34A G35U A39U C42A stands 0.04.
Consider C3A U9C G22C C42A, for which the self-cleavage came to 0.01.
Take C3G A4C G5C A12G: the self-cleavage came to 0.09.
Under C3G C10G G40A C42A stands 0.01; under C3G C8A C31G G33A, 0.13.
For C3G A24C C42U the value was 0.15; for C3G A4U A24C G44A, 0.04; for C3G A12G G17U G36C U43G, 0.
As to C3G A25C G29U G44C, the self-cleavage amounted to 0.7.
Under C3G A11G C45G stands 0.01; under C3G C10U A12G, 0.02.
With C3G A4G C23A, the self-cleavage came out at 0.08.
Under C3G C10U G17A A25C G29A stands 0.06; under C3G A11C G44U, 0.04; under C3A U9G C10A C15U A16C C18G U34G G36A G44A, 0.02.
For C3G C10G G19A the value was 0.02; for C3A G35U G40A, 0.21; for C3A G35U G40U, 0.14.
Regarding C3G C8U A41U, the self-cleavage came out at 0.36.
For C3G C8A A16G G19A A25U C31G the value was 1.07.
With C3G A12U C13U U28C, the self-cleavage worked out at 0.12.
For C3A U28A U34C G36A A39G G40U the value was 0.07; for C3G A4U C13G C45U, 0.02; for C3G A4G G35A, 0.04.
For C3A U20A C37A the value was 0.21; for C3A G30A G33C C37A, 0.08.
Under C3A U32C G33A stands 0.04; under C3G A6G G22C G33U G44C, 0.02; under C3G A4C G7U U38C G44U, 0.2.
Consider C3A G33A A39U A41U, for which the self-cleavage was 0.07.
With C3G C10A A12U C15A G40A, the self-cleavage worked out at 0.03.
For C3A G27U C45A the value was 0.36; for C3G A4C G5A A6G G7A C8A G40C, 0.16.
Under C3A U32G C46G stands 0.44; under C3A U9C A11U U43C, 0.03; under C3A U34C U38G, 0.04.
Under C3A U38C G44A stands 1.5; under C3G C15A A41C, 0.16.
For C3G A16C A24U A41G, the self-cleavage was 0.06.
With C3G A6C A14C C15A G19C G22A C23A C37G G40A, the self-cleavage is 0.
For C3G C10U G19A G36A the value was 0.1.
For C3G A6U C18U A24U G27C C42U G44A the value was 0.16; for C3G C13U A26U C37U A39G, 0.04.
Take C3G A4C C23A C37A: the self-cleavage amounted to 0.04.
Turning to C3G C10A A26G C31G G33C, the self-cleavage was found to be 0.04.
For C3A U20G G22C G36C the value was 0.25; for C3G A12C C13U G27A U34G C37G G44U, 0.02; for C3G A6U G19A U38C C45G, 0.26.
Under C3G A6G G7U G35U stands 0.15; under C3G C8G A12U A14U U20G U32C, 0.06.
Under C3A U28G G35U G44U stands 0.1.
For C3G A6C A25U G29U C46G, the self-cleavage worked out at 0.29.
Under C3G A16G G27U stands 0.11.
Regarding C3G A6U A24C, the self-cleavage turned out to be 0.15.
For C3G C8G C23A U38A the value was 0.04; for C3G A16C C23A C31U G40C, 0.
Under C3G C18U C31A stands 0.16.
Regarding C3G A4U A14U C23U G29U C31G G40C, the self-cleavage amounted to 0.03.
Under C3G C15A G30A stands 0.15.
On to C3G C8A G22U C23G G40U, for which the self-cleavage is 0.09.
Under C3A U9G A11C A25C C37U U38G stands 0.02; under C3G A6G U38G, 0.02; under C3G C10U U34C G40C, 0.06.
Under C3G A25C U38A stands 0.04; under C3G C10A A11C, 0.01.
Under C3G A16G G19A U28C stands 0.21; under C3G A4G A16U G33U A39C C46A, 0.03; under C3A G40C U43C C46A, 0.08.
As for C3G C8G U38C, the self-cleavage turned out to be 0.31.
Turning to C3G C8U C18G, the self-cleavage is 0.06.
Under C3G C8U G22C A26U C37G G44U stands 0.02; under C3G A25C G29A C37G, 0.02; under C3G A6U C15A A25G G27C U28C, 0.06.
Under C3G C10G G44A stands 0.04; under C3G A6C A16C G36U, 0.09.
Regarding C3G A6C C8U G29U C45A, the self-cleavage was found to be 0.29.
C3G C15G U20A: the self-cleavage turned out to be 0.03.
For C3A G27C G30U C37A the value was 0.61; for C3G A11C C46A, 0; for C3G A4U G21U G33C G36U G40C, 0.05.
